The record followed here is ChEMBL document CHEMBL4888484, “Replenishing the malaria drug discovery pipeline: Screening and hit evaluation of the MMV Hit Generation Library 1 (HGL1) against asexual blood stage Plasmodium falciparum ,using a nano luciferase reporter read-out” (2022).

Structures are written as SMILES. Hit rate of the full screen: of about 4,800 compounds, about 410 (8.5%) showed an effect of 50% or more. This is one part of the list.

As a reminder, the % Inhibition is the relative decrease from the control value, in per cent.

The test relates to Plasmodium falciparum. The experiment in a line: Confirmatory screen in NF54 pLDH assay, in single point, at 2uM, 72h. It is filed as functional, Erythrocyte. The conditions noted are these: timepoint 72 hour.
In the case of `Cc1cc(NC(=O)[C@@H](c2ccccc2)N2CCCCC2=O)sn1`, the “% Inhibition” value is 1%.

In the case of `CCC(C(=O)Nc1ccc2c(c1)CN(CCc1ccc(OC)c(OC)c1)C(=O)C(C)O2)c1ccccc1` (centres undefined), the “% Inhibition” value came out at 100%.

With `O=C(NCc1ccccn1)c1cc(C(F)(F)F)cc(C(=O)Nc2ccccc2)n1`, the “% Inhibition” value is 12%.

With `O=C(Nc1ccncc1)c1ccc2ccccc2n1`, the “% Inhibition” value is reported as 18%.

For the compound `COc1cc(CNCCCN2CCOCC2)ccc1OCc1ccc(Cl)cc1`, the “% Inhibition” value was determined as 40%.

On to `CC(C)(C)n1ncnc1NC(=O)c1cc(Cl)cc(Cl)c1`, for which the “% Inhibition” value came out at 23%.

In the case of `Cc1cc(C)n(-c2ccc(-c3nnc(-c4cc5cc(Oc6ccccc6)ccc5[nH]4)s3)cc2)n1`, the “% Inhibition” value turned out to be 6%.

Regarding `Cc1ccc(NC(=O)c2cc[nH]n2)c(C)c1`, the “% Inhibition” value is on record as -23%.

As for `Cc1c(-c2nn(-c3nc(C4CC4)cc(C(F)(F)F)n3)c(-c3cnn(C)c3C)c2Cl)cnn1C`, the “% Inhibition” value is recorded as 14%.

Take `Cn1c(CN2CCN(c3ccccc3)CC2)c(C#N)c2ccccc21`: the “% Inhibition” value is recorded as -8%.

For the compound `Cc1nc(C(=O)Nc2[nH]c(=O)ncc2F)c(-c2ccccc2)o1`, the “% Inhibition” value is 70%.

As to `Cc1cc(-c2ccccc2)cc(-c2ccccc2)c1-c1cc(-c2ccccc2)cc(-c2ccccc2)n1`, the “% Inhibition” value is -3%.

With `Nc1nonc1C(=O)N1CCN(C(=O)Nc2ccc3c(c2)OCO3)CC1`, the “% Inhibition” value is -12%.

Turning to `O=C(N[C@@H](CCO)c1ccco1)c1cc(Cn2cccn2)on1`, the “% Inhibition” value is -23%.

For the compound `Cn1ccnc1CN1CCC[C@@](O)(CNS(=O)(=O)c2cccs2)CC1`, the “% Inhibition” value is -12%.

Take `COc1ccc(CC(=O)NCCn2c(C(F)(F)F)nc3ccccc32)cc1`: the “% Inhibition” value stood at 9%.

Consider `CCS(=O)(=O)C1CN(C(=O)c2ccnn2C2CCCC2)C1`, for which the “% Inhibition” value is -2%.

Turning to `CCc1ccc(C(NC(=O)C2CCNC2)C(C)(C)C)o1` (centres undefined), the “% Inhibition” value is recorded as -8%.

In the case of `NS(=O)(=O)N[C@H]1CCCc2sc(Cl)cc21`, the “% Inhibition” value is recorded as 9%.

Turning to `O=C(NCCCN1CCOCC1)C1C2CCCC21` (centres undefined), the “% Inhibition” value is on record as 8%.

On to `COc1ccc(CCN2C(=O)CC[C@H]2c2cn(C)c3ccccc23)cc1OC`, for which the “% Inhibition” value was 5%.

For `COc1cc(CNCc2ccco2)ccc1OCc1cccc(C)c1`, the “% Inhibition” value was found to be 3%.

Take `Cc1nnc(-c2ccco2)c2cn(-c3ccc(Cl)cc3)nc12`: the “% Inhibition” value is recorded as -11%.

Take `Cc1cnc(C2CCC2)n1CCNS(=O)(=O)c1ccccc1`: the “% Inhibition” value amounted to 2%.

Regarding `O=C(Nc1ccc(F)cc1)c1c(-c2ccc(Cl)cc2)nc2n1CCS2(=O)=O`, the “% Inhibition” value is recorded as -4%.

Take `NC(=O)C1CCN(C(=O)NC2CCCCCC2)CC1`: the “% Inhibition” value is given as -19%.

Turning to `O=C(CCn1nc(-c2cccc(Cl)c2)ccc1=O)NCc1ccc(F)cc1F`, the “% Inhibition” value was 8%.

For the compound `CC1CN(C(=O)C(C(C)C)N2CC(C)OC(C)C2)CCO1` (centres undefined), the “% Inhibition” value is -12%.

For the compound `O=C(N[C@H](c1ccccc1)C1CC1)C(c1ccccc1)c1ccccc1`, the “% Inhibition” value was found to be 11%.
